Measurements reported in PubChem BioAssay AID662 (National Center for Advancing Translational Sciences (NCATS), 2007).
Hit rate of the full screen: of about 71,000 compounds, about 1,800 (2.5%) were called active. Inconclusive results, whose numbers are uncertain, are shown with a selection of clear calls. The call rests on the fitted dose curve; in most records, active means well fitted activation curve with a large enough effect in the signal ratio, with a control signal flat (not every such curve was filed as active); inconclusive means small, poorly fitted or top-dose-only effect, or effect the other way, or a change in a side signal; inactive means flat fitted curve, though single readings scatter; the % refers to the signal ratio. Where the call is inconclusive, the potency comes from a doubtful curve fit.

Assay: Cell signaling CRE-BLA (Fsk stim); on activity change, negative = inhibition: % of control where 0% means no effect
Conditions: CHO CRE-bla reporter (cAMP response element driving beta-lactamase), forskolin EC10, beta-lactamase ratio; activity change, negative = inhibition: at 38.2 µM (top of the series) unless noted
How it was run: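 Beta-lactamase reporter under a cAMP responsive element in CHO cells; compounds tested in titration series against EC10 NKH 477, 3 h at 37 °C. Read-out: CCF4 FRET ratio 460nm/530nm (excitation 405nm) giving %Activity, fitted to AC50.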
Potency means the concentration at half of the fitted maximal effect; tags describe the fitted curve by direction and shape.

Compound	Potency	activity change, negative = inhibition
O=C(Cn1nnc(-c2ccccc2NC(=O)c2ccco2)n1)Nc1ccccc1	inconclusive: 10 µM [rising, partial curve]	–
CCOC(=O)C1=C(C)OC(N)=C(C#N)C1c1ccsc1 (centres undefined)	–	inactive: -8.06%
O=C(CCS(=O)(=O)c1cccc2nonc12)N1CCOCC1	–	inconclusive: 15%
c1ccc2c(c1)Cn1c-2nc2ccccc21	–	inactive: 8.55%
CCC(C)COC(=O)c1ccc(C(=O)O)cc1 (centres undefined)	–	inactive: -10.2%
CCn1cc(Br)c(C(=O)NCc2ccco2)n1	–	inconclusive: 0.322%
COc1ccc(-c2cc(C(F)(F)F)nc(NCc3ccco3)n2)cc1OC	active: 2.51 µM	–
O=C(Nc1ccc(S(=O)(=O)NCc2ccco2)cc1)c1ccc2ccccc2n1	–	inconclusive: -13.3%
O=C1CCCN1CN(C(=O)c1ccc2c(c1)OCO2)c1cccc(Cl)c1	inconclusive: 2 µM [rising, full curve, poor fit]	–
CCOC(=O)c1[nH]c(CSc2nnc(-c3ccncc3)n2CCOC)c(C(=O)OCC)c1C	inconclusive: 12.6 µM [rising, single point]	–
CC(C)(C)C1CCc2c(sc3c2C(=O)NC(c2ccco2)N3)C1 (centres undefined)	–	inactive: 5.34%
CON(C)c1nc(Oc2ccc(=O)[nH]n2)nc(N(C)C)n1	–	inconclusive: -21.8%
C(=N\c1c(-c2ccccc2)nc2n1CCS2)/c1ccccc1	–	inactive: 12.2%
Cc1sc2ncnc(Sc3nnnn3-c3ccc(Cl)cc3)c2c1C	inconclusive: 15.8 µM [falling, partial curve]	–
CCOC(=O)C1CCN(c2ncnc3nc[nH]c23)CC1	–	inconclusive: -1.69%
CN1CCC(=C2c3ccccc3C=Cc3ccccc32)CC1	inconclusive: 6.31 µM [falling, partial curve, poor fit]	–
CCCc1cc(=O)[nH]c(Nc2cc(OC)ccc2OC)n1	inconclusive: 10 µM [rising, partial curve]	–
O=C(O)CCSCC(=O)Nc1c(C(=O)C2CC2)oc2ccccc12	inconclusive: 15.8 µM [rising, partial curve]	–
COCCN(CCOC)S(=O)(=O)c1ccc(C(=O)Nc2nc(-c3ccncc3)cs2)cc1	–	inactive: 9.02%
CCCNC[C@H](O)COc1ccccc1C(=O)CCc1ccccc1	–	inconclusive: -13.4% [at 17.1 µM]
CN(C)C(CNC(=O)CCCc1c[nH]c2ccccc12)c1ccco1 (centres undefined)	–	inconclusive: 0.0562%
CCn1c(=O)cc(N2CCCCC2)[nH]c1=O	inconclusive: 10 µM [falling, partial curve]	–
O=C(c1cnccn1)N1CCC2(CCCN(c3ccncc3)C2)CC1	–	inactive: 2.24%
N#Cc1c(-c2ccccc2)no[n+]1[O-]	–	inconclusive: -26%
COc1ccc(C2NCCc3cc(OC)c(OC)cc32)cc1OC (centres undefined)	inconclusive: 10 µM [rising, single point]	–

Compound	Potency	activity change, negative = inhibition
Cn1cc(S(=O)(=O)NCc2cccs2)c(=O)n(C)c1=O	inconclusive: 12.6 µM [rising, partial curve]	–
Nc1nc(Cn2nnc(-c3ccccc3F)n2)nc(N2CCOCC2)n1	–	inactive: 24.9%
CCNc1ncc2nc(-c3ccc(OC)cc3)c(=O)n(C[C@H]3CCCO3)c2n1	inconclusive: 3.16 µM [rising, partial curve]	–
CCn1c(=O)c2[nH]c(-c3ccccc3)nc2n(CC)c1=O	inconclusive: 5.01 µM [rising, partial curve]	–
COC(=O)C(CCSC)NC(=O)CNC(=O)C1CCCCC1 (centres undefined)	–	inconclusive: 8.88%
COc1ccc(CCC(=O)N2CCN(C3CCCCC3)CC2)cc1	–	inconclusive: -27.3%
CCn1c(CCC(=O)Nc2nc3c(s2)CCCC3)nc2cc(S(=O)(=O)N(C)C)ccc21	inconclusive: 3.16 µM [falling, single point]	–
Cc1cc(NC(=O)CSc2nnc(-c3ccc(Cl)s3)o2)no1	–	inconclusive: -13.7%
Cc1cc(-c2ccc(N=Nc3ccc4c(S(=O)(=O)O)cc(S(=O)(=O)O)c(N)c4c3O)c(C)c2)ccc1N=Nc1ccc2c(S(=O)(=O)O)cc(S(=O)(=O)O)c(N)c2c1O	–	inconclusive: -1.96%
CN1CCN(c2ncc3nc(-c4cccs4)c(=O)n(C[C@H]4CCCO4)c3n2)CC1	inconclusive: 7.94 µM [rising, partial curve]	–
CCc1c2c(nc3cccc(C(C)C)c13)-c1cccc(=O)n1C2	active: 12.6 µM	–
CCCCCn1c(CN2CCN(c3cc(Cl)ccc3C)CC2)nc2c1c(=O)[nH]c(=O)n2C	inconclusive: 20 µM [rising, single point]	–
CCOc1ccc(-c2nc(C#N)c(NCc3ccc4c(c3)OCO4)o2)cc1	inconclusive: 7.94 µM [rising, partial curve]	–
COc1cc(=O)n(C)c2cc(N(C)C)ccc12	–	inconclusive: 21%
Oc1ccccc1C(Sc1nc2ccccc2s1)Sc1nc2ccccc2s1	–	inactive: -9.56% [at 7.6 µM]
CCOc1cc2[nH]c(=O)n(CC3CCC(C(=O)NC(C)CC)CC3)c(=O)c2cc1OCC (centres undefined)	–	inconclusive: -26.5%
COc1ccc(-n2c(=O)c(-c3ccccc3)nc3cnc(N4CCNCC4)nc32)cc1	inconclusive: 10 µM [rising, partial curve]	–
O=S(=O)(c1cccc(F)c1)N1CCN(Cc2ccc3c(c2)OCO3)CC1	inconclusive: 12.6 µM [rising, single point]	–
CCC(C)NC(=O)CSc1nc2ccccc2c(=O)n1CCCC(=O)NCC1CCCO1 (centres undefined)	–	inactive: -6.71%
O=C(NCC(c1cccnc1)N1CCN(c2ccccc2)CC1)c1ccc2c(c1)OCO2 (centres undefined)	inconclusive: 15.8 µM [falling, partial curve]	–
c1c2c(cc3sc(N4CCCCC4)nc13)OCCO2	inconclusive: 12.6 µM [rising, partial curve]	–
CC(=O)Nc1cccc2c1C(=O)NC2=O	–	inconclusive: 3.03%
COc1ccc(-c2nc3cnc(N4CCOCC4)nc3n(-c3ccccc3)c2=O)cc1	inconclusive: 6.31 µM [rising, partial curve]	–
CCCCN(C)C(=O)CCCCn1c(=O)[nH]c2cc(OCC)c(OCC)cc2c1=O	inconclusive: 12.6 µM [rising, single point]	–
